In PMC5214253:
No constants are given. Whether binding was seen depends on the method and setting. In cells and extracts the contact can be indirect. Some binding calls cover weakened binding; strength is not graded here.

What was measured:
[1] = molecular target: Flag-TRIM5α-dC (UniProt Q9C035); assay: co-IP
[2] = molecular target: Flag-TRIM5α (UniProt Q9C035); assay: co-IP
[3] = molecular target: Flag-tagged Rta (Epstein–Barr virus) (UniProt P03209); assay: co-IP; lysates of 293T cells cotransfected with a Flag-tagged protein and GFP or GFP fusions; IP with anti-Flag, blot with anti-GFP
[4] = molecular target: Rta expressed from pCMV-Rta (Epstein–Barr virus) (UniProt P03209); assay: co-IP
[5] = molecular target: GST-TRIM5α (UniProt Q9C035); assay: pull-down; only the target purified
[6] = molecular target: HA-TRIM5α (UniProt Q9C035); assay: co-IP

With “GFP-N190 (from UniProt P03209 1-190) (domain or fragment)” the binding [1] was “binds” and the binding [2] was “binds”.

In the case of GFP-TRIM5α (from UniProt Q9C035 1-493), the binding [3] is reported as “binds”.

With “GFP-TRIM5α-dC (from UniProt Q9C035 1-261) (domain or fragment)” the binding [3] was “binds”.

With “GFP-TRIM5α-dN (from UniProt Q9C035 81-493) (domain or fragment)” the binding [3] was “no binding”.

In the case of “GFP-TRIM5α-dNM (from UniProt Q9C035 261-493) (domain or fragment)”, the binding [3] is reported as “no binding”.

With HA-TRIM5α (from UniProt Q9C035 1-493) the binding [4] was “binds”.

For “His-tagged Rta (from UniProt P03209 1-605)”, the binding [5] was “binds”.

For “Rta expressed from pCMV-Rta (from UniProt P03209 1-605)”, the binding [6] was “binds”.
